Experimental data taken from publication PMC5892938.
The other results are listed elsewhere or left out. At the low end of the ranking the order means little.
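Note: DESeq read counts versus GST-SBP nonspecific binding control pulldown.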

The sequences below were run against GST-SBP-SLBP (stem-loop binding protein) (UniProt Q14493) (assay: targeted RNA Bind-n-Seq). Details: RBNS binding buffer: 25 mM Tris pH 7.5, 150 mM KCl, 3 mM MgCl2, 0.1% Tween, 0.5 mg/mL BSA, 1 mM DTT; 27 nM protein, 750 pM RNA pool; temperature not stated; high values mean tight binding.
For “GGUCACGUCUCAAUCAACUCUACUCCAGGAGUUUUCUCCUGCAAAUUCAACAGCUCGCAGUCAAG”, the binding signal (log2 fold change) was 0.0688. “GGUCACGUCUCAAUCAACUCAUCUUCAGGAGUUUGCUCCUGUAUAUUCAACAGCUCGCAGUCAAG” was tested, and the binding signal (log2 fold change) was -0.0541. With “GGUCACGUCUCAAUCAACUCAUUUCCAGGAGUUUUCUCCUGUAAUUUCAACAGCUCGCAGUCAAG” the binding signal (log2 fold change) was 0.0498. “GGUCACGUCUCAAUCAACUCUAUUCCAGGAGUUUUCUCCUGCUAACUCAACAGCUCGCAGUCAAG” gave a binding signal (log2 fold change) of 0.0174. For “GGUCACGUCUCAAUCAACUCAACUCCAGGAGUUUCCUCCUGCAAUCUCAACAGCUCGCAGUCAAG”, the binding signal (log2 fold change) was 0.0162. “GGUCACGUCUCAAUCAACUCUAGGUCAGGAGUUUUCUCCUGUAAAUUCAACAGCUCGCAGUCAAG” gave a binding signal (log2 fold change) of 0.00903. Work on “GGUCACGUCUCAAUCAACUCUUUCUCAGGAGUUUUCUCCUGUAAACUCAACAGCUCGCAGUCAAG” yielded a binding signal (log2 fold change) of -0.00247. For “GGUCACGUCUCAAUCAACUCUUUCUCAGGAGUUUACUCCUGUAUUUUCAACAGCUCGCAGUCAAG”, the binding signal (log2 fold change) was -0.172. Sequence “GGUCACGUCUCAAUCAACUCUACUCCCAGGGAAAUCCCUGGCUUAUUCAACAGCUCGCAGUCAAG” has a binding signal (log2 fold change) of -0.00341. For “GGUCACGUCUCAAUCAACUCAUUCCCAGGAGUUUGCUCCUGUAUUCUCAACAGCUCGCAGUCAAG”, the binding signal (log2 fold change) was 0.139. Work on “GGUCACGUCUCAAUCAACUCAUUCUCCAGGGAAAGCCCUGGUAAUUUCAACAGCUCGCAGUCAAG” yielded a binding signal (log2 fold change) of -0.135. “GGUCACGUCUCAAUCAACUCUUUCUCCAGGGAAAGCCCUGGCUUUCUCAACAGCUCGCAGUCAAG” was tested, and the binding signal (log2 fold change) was 0.122. In the case of “GGUCACGUCUCAAUCAACUCAACUUCCAGGGAAAUCCCUGGCUUUUUCAACAGCUCGCAGUCAAG”, the binding signal (log2 fold change) was -0.148. “GGUCACGUCUCAAUCAACUCUCCCGAGGGGGGGAAAACCCCUUUACCCUCUUUAUCAACAGCUCGCAGUCAAG” was tested, and the binding signal (log2 fold change) was -0.146. For “GGUCACGUCUCAAUCAACUCAUCCGAGGGGGGGAAAACCCCUUUACCCUCAACAUCAACAGCUCGCAGUCAAG”, the binding signal (log2 fold change) was -0.446. “GGUCACGUCUCAAUCAACUCAUCUUCCAGGGAAAGCCCUGGUUAUUUCAACAGCUCGCAGUCAAG” was tested, and the binding signal (log2 fold change) was -0.11. With “GGUCACGUCUCAAUCAACUCCCUCGAGGGGGGGAAAACCCCUUUACCCUCAACCUCAACAGCUCGCAGUCAAG” the binding signal (log2 fold change) was -0.269. With “GGUCACGUCUCAAUCAACUCUACUUCCAGGGAAAACCCUGGCUUACUCAACAGCUCGCAGUCAAG” the binding signal (log2 fold change) was 0.229. For “GGUCACGUCUCAAUCAACUCUACUCCAGGAGUUUACUCCUGCUAAUUCAACAGCUCGCAGUCAAG”, the binding signal (log2 fold change) was 0.145. “GGUCACGUCUCAAUCAACUCGCAAGAGGGGGGGAAAACCCCUUUACCCUCACAAUCAACAGCUCGCAGUCAAG” showed a binding signal (log2 fold change) of 0.536. “GGUCACGUCUCAAUCAACUCUUCUUCCAGGGAAACCCCUGGUUUUCUCAACAGCUCGCAGUCAAG” gave a binding signal (log2 fold change) of 0.0175. Sequence “GGUCACGUCUCAAUCAACUCUAUCUCAGGAGUUUACUCCUGUAUUCUCAACAGCUCGCAGUCAAG” has a binding signal (log2 fold change) of 0.228. With “GGUCACGUCUCAAUCAACUCAGUCCCAGGAGUUUCCUCCUGUUUUCUCAACAGCUCGCAGUCAAG” the binding signal (log2 fold change) was 0.0303. Work on “GGUCACGUCUCAAUCAACUCAAUCUCAGGAGUUUCCUCCUGUAUACUCAACAGCUCGCAGUCAAG” yielded a binding signal (log2 fold change) of 0.0768. For “GGUCACGUCUCAAUCAACUCUUUUUCAGGAGUUUCCUCCUGCUAUUUCAACAGCUCGCAGUCAAG”, the binding signal (log2 fold change) was 0.00196. In the case of “GGUCACGUCUCAAUCAACUCCAUAGAGGGGGGGAAAACCCCUUUACCCUCCGUUUCAACAGCUCGCAGUCAAG”, the binding signal (log2 fold change) was 0.173. Work on “GGUCACGUCUCAAUCAACUCUUUUUCCAGGGAAACCCCUGGCUUAUUCAACAGCUCGCAGUCAAG” yielded a binding signal (log2 fold change) of 0.0123. With “GGUCACGUCUCAAUCAACUCUAUUUCCAGGGAAACCCCUGGUUUACUCAACAGCUCGCAGUCAAG” the binding signal (log2 fold change) was -0.0408. “GGUCACGUCUCAAUCAACUCUUCUCCCAGGGAAACCCCUGGUUUAUUCAACAGCUCGCAGUCAAG” showed a binding signal (log2 fold change) of -0.299. Sequence “GGUCACGUCUCAAUCAACUCUUUCGCAGGAGUUUCCUCCUGGUUUUUCAACAGCUCGCAGUCAAG” has a binding signal (log2 fold change) of 0.0475. “GGUCACGUCUCAAUCAACUCUUUCUCAGGAGUUUCCUCCUGUAAUCUCAACAGCUCGCAGUCAAG” gave a binding signal (log2 fold change) of 0.00473. For “GGUCACGUCUCAAUCAACUCUAUCCCCAGGGAAAACCCUGGUAUACUCAACAGCUCGCAGUCAAG”, the binding signal (log2 fold change) was 0.164. “GGUCACGUCUCAAUCAACUCUUUCCCAGGAGUUUACUCCUGCAUUUUCAACAGCUCGCAGUCAAG” gave a binding signal (log2 fold change) of 0.138. “GGUCACGUCUCAAUCAACUCUAUUCCCAGGGAAACCCCUGGUUUAUUCAACAGCUCGCAGUCAAG” showed a binding signal (log2 fold change) of 0.182. With “GGUCACGUCUCAAUCAACUCUAUCCCAGGAGUUUACUCCUGUUAAUUCAACAGCUCGCAGUCAAG” the binding signal (log2 fold change) was 0.0459. Sequence “GGUCACGUCUCAAUCAACUCAUUUUCCAGGGAAACCCCUGGCUUACUCAACAGCUCGCAGUCAAG” has a binding signal (log2 fold change) of 0.234. With “GGUCACGUCUCAAUCAACUCCCUCGAGGGGGGGAAAACCCCUUUACCCUCACUUUCAACAGCUCGCAGUCAAG” the binding signal (log2 fold change) was 0.101.
